Measurements taken from paper PMC11335204.
These are yes or no findings as the source states them, for the method shown. In cells and extracts the contact can be indirect. Some results given as binding are weak or reduced against the parent protein; the word gives no strength.

Amino acid sequences for entries named in this document (tags omitted). A change or cut given only in a name is not applied to a line headed by its entry. Chains listed by the source or under a name are the forms on record and can include a tag or linker. Residues count along the entry.
GST fused to the 2-340 INF2 fragment (Q27J81, residues 2-340): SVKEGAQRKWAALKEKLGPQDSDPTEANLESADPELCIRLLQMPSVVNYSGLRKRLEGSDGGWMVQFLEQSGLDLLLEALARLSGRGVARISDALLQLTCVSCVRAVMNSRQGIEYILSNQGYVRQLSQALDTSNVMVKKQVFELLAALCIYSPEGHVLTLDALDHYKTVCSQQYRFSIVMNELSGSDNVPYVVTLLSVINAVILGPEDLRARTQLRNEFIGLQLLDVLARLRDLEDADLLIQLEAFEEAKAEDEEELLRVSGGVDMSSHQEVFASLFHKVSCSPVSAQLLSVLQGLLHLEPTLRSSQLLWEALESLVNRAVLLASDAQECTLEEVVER
GST fused to the 2-21 INF2 fragment (Q27J81, residues 2-21): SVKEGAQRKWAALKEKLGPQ
GST fused to the 19-340 INF2 fragment (Q27J81, residues 19-340): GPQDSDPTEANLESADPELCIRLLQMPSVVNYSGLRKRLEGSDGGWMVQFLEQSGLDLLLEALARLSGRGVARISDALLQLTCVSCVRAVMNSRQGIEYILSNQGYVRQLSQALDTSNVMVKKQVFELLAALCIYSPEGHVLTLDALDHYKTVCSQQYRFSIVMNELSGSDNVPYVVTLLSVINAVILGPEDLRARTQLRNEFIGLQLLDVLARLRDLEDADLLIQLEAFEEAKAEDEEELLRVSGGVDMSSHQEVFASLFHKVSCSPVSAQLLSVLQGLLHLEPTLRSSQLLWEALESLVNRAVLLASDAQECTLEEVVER
GST fused to the 2-340 INF2 fragment with the triple W11L14L18A mutation (Q27J81, form named): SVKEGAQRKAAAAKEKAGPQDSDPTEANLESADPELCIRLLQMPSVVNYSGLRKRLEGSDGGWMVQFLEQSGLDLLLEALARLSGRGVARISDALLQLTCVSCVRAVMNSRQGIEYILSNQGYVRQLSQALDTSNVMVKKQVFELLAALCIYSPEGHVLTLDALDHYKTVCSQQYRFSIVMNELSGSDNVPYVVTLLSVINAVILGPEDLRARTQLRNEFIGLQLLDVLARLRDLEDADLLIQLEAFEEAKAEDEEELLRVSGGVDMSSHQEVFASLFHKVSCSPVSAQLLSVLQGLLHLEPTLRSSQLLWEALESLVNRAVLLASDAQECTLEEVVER
UniProt Q12798: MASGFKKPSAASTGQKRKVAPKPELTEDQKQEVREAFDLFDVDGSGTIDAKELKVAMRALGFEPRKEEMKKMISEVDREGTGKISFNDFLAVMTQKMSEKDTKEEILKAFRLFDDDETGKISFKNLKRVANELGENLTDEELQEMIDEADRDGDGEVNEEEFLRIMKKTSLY

Tests used:
Assay in all cases: pull-down; 30 µg GST-fused INF2 fragments immobilized on glutathione-Sepharose 4B beads, incubated 3 h at 4 °C with lysates of HEK293T cells expressing GFP fusions; 20 mM Tris-HCl pH 7.8, 150 mM NaCl, 1% Nonidet P-40, 1% glycerol, 5 mM CaCl2; immunoblotting; only the target purified
[1] = biological target: GST fused to the 2-21 INF2 fragment (human) (UniProt Q27J81)
[2] = biological target: GST fused to the 19-340 INF2 fragment (human) (UniProt Q27J81)
[3] = biological target: GST fused to the 2-340 INF2 fragment with the triple W11L14L18A mutation (human) (UniProt Q27J81)
[4] = biological target: GST fused to the 2-340 INF2 fragment (human) (UniProt Q27J81)

binding [1]: binds
binding [2]: no binding
binding [3]: no binding
binding [4]: binds
Substance: GFP fused to centrin-1 (from UniProt Q12798 1-172)
